The values that follow come from the supplement of paper PMC9135407.

Molecules are shown by their SMILES. “And” between values parts separate entries of the source, which are not always exact repeats. Equal values may be shown once. Where a name gives a salt, the structure may show the parent alone. Hit rate of the full screen: of about 5,800 compounds, about 620 (11%) showed activity.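 How the source made its calls: active = score above a cut-off or among the top three wells of a plate; in these data no inactive exceeds 0.85.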 Only a part is listed here, and it is no random draw.

This experiment deals with primary human hepatic stellate cells (donor 1). Nature of the experiment: scaled lipid accumulation score (0 = DMSO-like, 1 = nortriptyline-like); higher = stronger HSC inactivation (lipid re-accumulation), active = hit call of the paper. The note with it: 48 h.
Where [1] appears, read: library stock concentration: 10 mM.
Where [2] appears, read: library stock concentration: 1 mM.
[3] abbreviates: library stock concentration: 3.33 mM.

Regarding `COc1ccc(C2=N[C@@H](c3ccc(Cl)cc3)[C@H](c3ccc(Cl)cc3)N2C(=O)N2CCNC(=O)C2)c(OC(C)C)c1` [Nutlin-3a], the “scaled lipid accumulation score” value under setting [1] was active: 0.954. On to `NCCCNCCCCN(CCCN)/[N+]([O-])=N/O` [Spermine NONOate], for which the “scaled lipid accumulation score” value under setting [2] is inactive: 0.027. In the case of `Cl.N/C(=N\Cc1ccccc1)NC(=O)c1nc(Cl)c(N)nc1N`, the “scaled lipid accumulation score” value (library stock concentration: 14 mM) was active: 1.1.

On to `CCCCC[C@H](O)/C=C/[C@H]1[C@H](O)CC(=O)[C@@H]1CC(=O)CCCCC(=O)O` [6-keto Prostaglandin E1], for which, under setting [2], the “scaled lipid accumulation score” value is inactive: ≤ 0.

As for `CC1=NN(c2ccccc2)C(=O)C1` [Edaravone], the “scaled lipid accumulation score” value runs as follows: under setting [3], inactive: ≤ 0; under setting [1], inactive: ≤ 0. For `CC1=NN(c2ccccc2)C(=O)C1`, the “scaled lipid accumulation score” value under setting [1] was inactive: ≤ 0.

Regarding `C[n+]1c2cc(N)ccc2cc2ccc(N)cc21` [Acriflavinium hydrochloride], the “scaled lipid accumulation score” value runs as follows: (library stock concentration: 7.7 mM) inactive: ≤ 0; under setting [1], inactive: ≤ 0. As for `CO[C@H]1/C=C\C=C(/C)C(=O)NC2=CC(=O)C(NCCN(C)C)=C(C[C@@H](C)C[C@H](OC)[C@H](O)[C@@H](C)/C=C(\C)[C@@H]1OC(N)=O)C2=O` [17-DMAG (Alvespimycin) HCl], the “scaled lipid accumulation score” value under setting [3] was inactive: 0.404. With `COc1ccc(/C=C/c2ccccc2F)cc1`, the “scaled lipid accumulation score” value under setting [2] is inactive: 0.063. Take `CCC[C@@H]1C[C@@H](C(=O)N[C@@H]([C@H]2O[C@H](SC)[C@H](O)[C@@H](O)[C@H]2O)[C@H](C)Cl)N(C)C1` [Clindamycin]: the “scaled lipid accumulation score” value is inactive: ≤ 0 under setting [3] and inactive: ≤ 0 under setting [1]. `CCC[C@@H]1C[C@@H](C(=O)N[C@@H]([C@H]2O[C@H](SC)[C@H](O)[C@@H](O)[C@H]2O)[C@H](C)Cl)N(C)C1` [Clindamycin HCl]: the “scaled lipid accumulation score” value was inactive: 0.031 under setting [3], inactive: ≤ -0.006 (library stock concentration: 4.7 mM) and inactive: ≤ 0 under setting [1]. Consider `CCC[C@@H]1C[C@@H](C(=O)N[C@@H]([C@H]2O[C@H](SC)[C@H](O)[C@@H](O)[C@H]2O)[C@H](C)Cl)N(C)C1` [Clindamycin hydrochloride], for which the “scaled lipid accumulation score” value is inactive: ≤ 0. For the molecule `O=C(N[C@H](CO)[C@H](O)c1ccc([N+](=O)[O-])cc1)C(Cl)Cl` [Chloramphenicol], the “scaled lipid accumulation score” value is inactive: 0.009. The “scaled lipid accumulation score” value under setting [3] was inactive: ≤ 0. Also, the “scaled lipid accumulation score” value (library stock concentration: 6.2 mM) is inactive: 0.005 and inactive: ≤ -0.001. Moreover, under setting [1], the “scaled lipid accumulation score” value is inactive: ≤ 0. In the case of `O=C(O)CCNC(=O)c1ccccc1` [Betamipron], the “scaled lipid accumulation score” value reads like this: under setting [3], inactive: ≤ 0; under setting [1], inactive: ≤ -0.001 and inactive: 0.015. Regarding `CCCCC[C@H](O)/C=C/[C@H]1C(=O)C[C@H](O)[C@@H]1CCCCCCC(=O)O` [Prostaglandin D1], the “scaled lipid accumulation score” value under setting [2] is inactive: 0.018. In the case of `NC/C=C/C(=O)O` [(E)-4-amino-2-butenoic acid], under setting [1], the “scaled lipid accumulation score” value was inactive: ≤ 0. As for `CCCCCC(=O)CC[C@@H]1[C@@H](C/C=C\CCCC(=O)O)[C@@H](O)C[C@H]1O` [13,14-dihydro-15-keto Prostaglandin F2.alpha.], the “scaled lipid accumulation score” value under setting [2] is inactive: ≤ 0.

For `C=C1/C(=C\C=C2/CCC[C@]3(C)[C@@H]([C@H](C)CCCC(C)C)CC[C@@H]23)C[C@@H](O)C[C@@H]1O` [Alfacalcidol], the “scaled lipid accumulation score” value by setting is: under setting [3], inactive: ≤ 0; (library stock concentration: 5 mM) inactive: ≤ -0.006.

Consider `CCN(CC)CCOC(=O)c1cc(Cl)c(N)cc1OC` [SDZ-205,557 hydrochloride], for which, under setting [1], the “scaled lipid accumulation score” value is inactive: 0.051.

In the case of `CCN(CC)CCOC(=O)c1cc(Cl)c(N)cc1OC` [SDZ 205-557 hydrochloride], the “scaled lipid accumulation score” value under setting [1] is inactive: 0.003. Still for that read-out and setting: the value for `CC(=O)N[C@@H](Cc1c[nH]c2ccccc12)C(=O)OCc1cc(C(F)(F)F)cc(C(F)(F)F)c1` was inactive: ≤ 0; that for `OC[C@H]1NC[C@H](O)[C@@H](O)[C@@H]1O` [1-Deoxynojirimycin hydrochloride] was inactive: ≤ -0.07. Turning to `CCN(CC)CCOC(=O)c1ccc(N)cc1Cl` [Chloroprocaine HCl], the “scaled lipid accumulation score” value is inactive: ≤ 0 under setting [3] and inactive: ≤ -0.001 under setting [1]. On to `CN[C@@H]1[C@@H](O[C@H]2O[C@H](CO)[C@@H](N)[C@H](O)[C@H]2O)OC2C[C@@H](N)[C@@H](O[C@H]3[C@H](O)[C@@H](O)[C@H](N)C[C@@H]3N)OC2[C@@H]1O` (stereo partly specified) [Apramycin], for which the “scaled lipid accumulation score” value is inactive: ≤ 0. Further, the “scaled lipid accumulation score” value under setting [1] is inactive: 0.006. As to `CC12CCC(CC1=O)C2(C)C` (stereo unspecified) [Camphor (1r)], the “scaled lipid accumulation score” value (library stock concentration: 13.1 mM) is inactive: ≤ -0.001.

Consider `C[C@@H]1NC(=O)[C@@H](N)CNC(=O)[C@H](C2CCNC(=N)N2)NC(=O)/C(=C/NC(N)=O)NC(=O)[C@H](CNC(=O)CC(N)CCCN)NC1=O.N=C1NCC[C@H]([C@@H]2NC(=O)/C(=C/NC(N)=O)NC(=O)[C@H](CNC(=O)C[C@@H](N)CCCN)NC(=O)[C@H](CO)NC(=O)[C@@H](N)CNC2=O)N1` [Capreomycin sulfate], for which the “scaled lipid accumulation score” value is inactive: ≤ -0.001 (library stock concentration: 2.6 mM) and inactive: ≤ 0 under setting [1]. Consider `O=C(O)CCC/C=C\C[C@@H]1[C@@H](/C=C/[C@@H](O)CCc2cccc(C(F)(F)F)c2)[C@H](O)C[C@@H]1O` [17-trifluoromethylphenyl trinor Prostaglandin F2.alpha.], for which, under setting [2], the “scaled lipid accumulation score” value is inactive: ≤ 0. As for `CC1(C)O[C@H]2CC(=O)OC[C@]23[C@H]2CC[C@@]4(C)[C@H](c5ccoc5)OC(=O)[C@H]5O[C@]54[C@]2(C)C(=O)C[C@@H]13` [Limonin], the “scaled lipid accumulation score” value was inactive: ≤ 0 under setting [3] and inactive: 0.008 under setting [1]. `Cc1c(-c2ccccc2)oc2c(C(=O)OCCN3CCCCC3)cccc2c1=O` [Flavoxate HCl]: the “scaled lipid accumulation score” value is inactive: ≤ 0 under setting [3] and inactive: ≤ -0.001 under setting [1].

`Cc1c(-c2ccccc2)oc2c(C(=O)OCCN3CCCCC3)cccc2c1=O` [Flavoxate hydrochloride]: the “scaled lipid accumulation score” value was inactive: ≤ 0. Regarding `CCCCCC(O)/C=C/C=O` (stereo unspecified) [4-hydroxy Nonenal], under setting [2], the “scaled lipid accumulation score” value is inactive: ≤ 0.

With `CN(N=O)C(=O)N[C@@H]1[C@@H](O)[C@H](O)[C@@H](CO)O[C@@H]1O` [Streptozosin], the “scaled lipid accumulation score” value (library stock concentration: 7.5 mM) is inactive: ≤ 0 and the “scaled lipid accumulation score” value under setting [1] was inactive: 0.029. Regarding `Cc1ccc(-c2nn(C(C)(C)C)c3ncnc(N)c23)cc1`, the “scaled lipid accumulation score” value reads like this: (library stock concentration: 80 uM) inactive: 0.022; (library stock concentration: 400 uM) inactive: ≤ 0; (library stock concentration: 2 mM) inactive: ≤ 0; under setting [3], inactive: 0.002; under setting [1], inactive: 0.21 and inactive: ≤ 0. For the molecule `NCCCC(=O)O` [Gamma-aminobutyric acid], under setting [1], the “scaled lipid accumulation score” value was inactive: ≤ 0. For the molecule `CCCCCCOC(=O)NC(=N)c1ccc(NCc2nc3cc(C(=O)N(CCC(=O)OCC)c4ccccn4)ccc3n2C)cc1` [Dabigatran Etexilate], the “scaled lipid accumulation score” value runs as follows: under setting [3], inactive: 0.081; under setting [1], inactive: 0.218.
